Experimental data as given in US20040180094A1 (priority 2003, published 2004).

Details: pH values around neutral
Text: The novel protecting group 2-bromo-2-(2-nitrophenyl) acetic acid (BNPA) was used to make all proteins photactivatable. This water-soluble reagent places an a-carboxy-2-nitrobenzyl (CNB) group on sulfhydryl groups. BNPA was produced in high yield by the bromination of 2-nitroacetyl chloride, followed by hydrolysis of the acyl chloride group.

For `O=C(O)C(Br)c1ccccc1[N+](=O)[O-]` (stereo not shown) [BNPA, 2-bromo-2-(2-nitrophenyl) acetic acid], the water solubility was “highly water-soluble”.
